# Data published in the supplement of paper PMC12217912.
# This is one part of the list. Sequences were assembled here from the parent chain. Values near 0.05 are background.
# B1: TEV protease; numbered along this chain (parent)
# chain: MGESLFKGPRDYNPISSSICHLTNESDGHTTSLYGIGFGPFIITNKHLFRRNNGTLVVQSLHGVFKVKDTTTLQQHLVDGRDMIIIRMPKDFPPFPQKLKFREPQREERICLVTTNFQTKSMSSMVSDTSCTFPSGDGIFWKHWIQTKDGQCGSPLVSTRDGFIVGIHSASNFTNTNNYFTSVPKNFMELLTNQEAQQWVSGWRLNADSVLWGGHKVFMVKPEEPFQPVKEATQL
# Variants of: B1
# Experiment: raw area under fraction-flipped curve 0-4 h after induction (AUC4h, not background-subtracted), DNA-recorder readout of cleavage of the substrate (dimensionless); higher = more cleavage of the substrate by the protease variant
# Conditions: temperature: 34 °C; time window: 0-4 h after rhamnose induction
# Procedure: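 In vivo DNA recorder in E. coli TOP10(DE3) ΔrhaA at 34 °C. Each TEVp single-site mutant (parent TEVp 0) is paired with a single-site variant of the 7-mer TEVs (canonical ENLYFQ|S). The substrate sits between flexible linkers in a Bxb1-sfGFP-TEVs-SsrA fusion, so cleavage stabilises Bxb1 and speeds flipping of a recombination array, read by NGS. The value is the raw area under the fraction-flipped curve over 0-4 h after rhamnose induction (AUC4h), with ≥20 reads per time point. It is not background-subtracted; inactive controls average about 0.047.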
# 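Further: Bxb1 expression induced with 0.2% (w/v) L-rhamnose at OD600 near 0.5, cultures sampled hourly, flipped fraction per protease–substrate barcode pair counted by paired-end Illumina sequencing.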
Variant,area with substrate ENLYAQS,area with substrate ENLYDQS,area with substrate ENLYEQS,area with substrate ENLYGQS,area with substrate ENLYHQS,area with substrate ENLYKQS,area with substrate ENLYMQS,area with substrate ENLYNQS,area with substrate ENLYPQS,area with substrate ENLYRQS,area with substrate ENLYSQS,area with substrate ENLYVQS,area with substrate ENLYIQS,area with substrate ENLYCQS,area with substrate ENLYTQS,area with substrate ENLYWQS,area with substrate ENLYQQS,area with substrate ENLYYQS,area with substrate ENLYLQS
MGESLFKGPRDYNPISSSICHLTNESDGHTTSLYGIGFGPFIITNKHLFRRNNGTLVVQSLHGVFKVKDTTTLQQHLVDGRDMIIIRMPKDFPPFPQKLKFREPQREERICLVTTNFQTKSMSSMVSDTSCTFPSGDGIFWKHWIQTKDGQCGSPLVSTRDGFIVGIHSASNFTNTNNYFTSVPKNFMELLTNQEAQQWVSGWRLNADSVLWGGHKVFMVKPEEPFQPVFEATQL [K230F],0.0743,0.0736,0.063,0.0629,0.0602,0.051,0.0884,0.0686,0.0622,0.0678,0.0779,0.0832,–,–,–,–,–,–,–
MGESLFKGPRDYNPISSSICHLTNESDGHTTSLYGIGFGPFIITNKHLFRRNNGTLVVQSLHGVFKVKDTTTLQQHLVDGRDMIIIRMPKDFPPFPQKLKFREPQREERICLVTTNFQTKSMSSMVSDTSCTFPSGDGIFWKHWIQTKDGQCGSPLVSTRDGFIVGIHSASNFTNTNNYFTSVPKNFMELLTNQEAQQWVSGWRLNADSVPWGGHKVFMVKPEEPFQPVKEATQL [L211P],0.072,0.0619,–,0.095,0.0563,–,–,–,0.0703,0.0514,–,–,0.0878,–,–,–,–,–,–
MGESLFKGPRDYNPISSSICHLTNESDGHTTSLYGIGFGPFIITNKHLFRRNNGTLVVQSLHGVFKVKDTTTLQQHLVDGRDMIIIRMPKDFPPFPQKLKFREPQREERICLVTTNFQTKSMSSMVSDTSCTFPSGDGIFWKHWIQTKDGQCGSPLVSTRDGFIVGIHSASNFTNTNNYFTSVPKNFMELLTNQEAQQWVSGWRLNADSVHWGGHKVFMVKPEEPFQPVKEATQL [L211H],0.0837,0.0743,0.0665,–,0.07,0.0709,–,0.0744,0.0667,–,–,–,0.111,0.0971,0.101,0.0656,–,–,–
MGESLFKGPRDYNPISSSICHLTNESDGHTTSLYGIGFGPFIITNKHLFRRNNGTLVVQSLHGVFKVKDTTTLQQHLVDGRDMIIIRMPKDFPPFPQKLKFREPQREERICLVTTNFQTKSMSSMVSDTSCTFPSGDGIFWKHWIQTKDGQCGSPLVSTRDGFIVGIHSASNFTNTNNYFTSVPKNFMELLTNQEAQQWVSGWRLNADSVLWGGHKVFMVKPEEPIQPVKEATQL [F226I],0.0973,0.0227,0.0762,0.0664,0.0518,0.0663,0.0766,0.0718,0.072,–,–,–,0.129,–,–,0.0991,0.0684,0.0626,–
MGESLFKGPRDYNPISSSICHLTNESDGHTTSLYGIGFGPFIITNKHLFRRNNGTLVVQSLHGVFKVKDTTTLQQHLVDGRDMIIIRMPKDFPPFPQKLKFREPQREERICLVTTNFQTKSMSSMVSDTSCTFPSGDGIFWKHWIQTKDGQCGSPLVSTRDGFIVGIHSASNFTNTNNYFTSVPKNFMELLTNQEAQQWVSGWRLNADSVLWGGHKVFMVKPEEVFQPVKEATQL [P225V],0.0882,0.053,0.0647,0.0676,0.068,0.0586,0.0666,0.0692,0.0733,0.0572,0.0545,0.0758,0.127,–,0.113,0.0763,–,0.0705,–
MGESLFKGPRDYNPISSSICHLTNESDGHTTSLYGIGFGPFIITNKHLFRRNNGTLVVQSLHGVFKVKDTTTLQQHLVDGRDMIIIRMPKDFPPFPQKLKFREPQREERICLVTTNFQTKSMSSMVSDTSCTFPSGDGIFWKHWIQTKDGQCGSPLVSTRDGFIVGIHSASNFTNTNNYFTSVPKNFMELLTNQEAQQWVSGWRLNADSVLWGGHKVFMVKPEEDFQPVKEATQL [P225D],0.0703,0.0603,0.0611,0.0656,0.0554,0.0618,–,0.0571,–,0.081,0.0917,–,0.14,–,0.0819,0.0711,0.0545,–,–
MGESLFKGPRDYNPISSSICHLTNESDGHTTSLYGIGFGPFIITNKHLFRRNNGTLVVQSLHGVFKVKDTTTLQQHLVDGRDMIIIRMPKDFPPFPQKLKFREPQREERICLVTTNFQTKSMSSMVSDTSCTFPSGDGIFWKHWIQTKDGQCGSPLVSTRDGFIVGIHSASNFTNTNNYFTSVPKNFMELLTNQEAQQWVSGWRLNADSVLWGGHKVFMVKPEELFQPVKEATQL [P225L],0.0615,0.0879,0.0594,–,0.0759,0.0616,0.0784,0.0724,0.0632,–,–,0.0766,0.0959,–,0.0739,0.0671,0.0768,–,–
MGESLFKGPRDYNPISSSICHLTNESDGHTTSLYGIGFGPFIITNKHLFRRNNGTLVVQSLHGVFKVKDTTTLQQHLVDGRDMIIIRMPKDFPPFPQKLKFREPQREERICLVTTNFQTKSMSSMVSDTSCTFPSGDGIFWKHWIQTKDGQCGSPLVSTRDGFIVGIHSASNFTNTNNYFTSVPKNFMELLTNQEAQQWVSGWRLNADSVLWGGHKVFMVKPEEPFSPVKEATQL [Q227S],0.0816,–,0.0766,–,0.0837,0.13,–,0.0695,0.0753,0.065,0.0608,0.183,0.141,0.104,–,0.0679,0.0448,0.0085,–
MGETLFKGPRDYNPISSSICHLTNESDGHTTSLYGIGFGPFIITNKHLFRRNNGTLVVQSLHGVFKVKDTTTLQQHLVDGRDMIIIRMPKDFPPFPQKLKFREPQREERICLVTTNFQTKSMSSMVSDTSCTFPSGDGIFWKHWIQTKDGQCGSPLVSTRDGFIVGIHSASNFTNTNNYFTSVPKNFMELLTNQEAQQWVSGWRLNADSVLWGGHKVFMVKPEEPFQPVKEATQL [S4T],–,0.0676,0.0727,0.0652,0.0639,0.0485,0.102,0.111,0.103,0.0452,–,0.155,0.14,0.133,0.0837,–,–,0.077,–
MGESLFKGPRDYNPISSSICHLTNESDGHTTSLYGIGFGPFIITNKHLFRRNNGTLVVQSLHGVFKVKDTTTLQQHLVDGRDMIIIRMPKDFPPFPQKLKFREPQREERICLVTTNFQTKSMSSMVSDTSCTFPSGDGIFWKHWIQTKDGQCGSPLVSTRDGFIVGIHSASNFTNTNNYFTSVPKNFMELLTNQEAQQWVSGWRLNADSVLWGGHKVFMVKEEEPFQPVKEATQL [P222E],0.0854,–,0.0661,0.0702,0.0689,0.0623,–,0.0616,0.0725,0.0587,–,0.113,–,0.0874,–,0.081,–,–,–
MGESLFKGPRDYNPISSSICHLTNESDGHTTSLYGIGFGPFIITNKHLFRRNNGTLVVQSLHGVFKVKDTTTLQQHLVDGRDMIIIRMPKDFPPFPQKLKFREPQREERICLVTTNFQTKSMSSMVSDTSCTFPSGDGIFWKHWIQTKDGQCGSPLVSTRDGFIVGIHSASNFTNTNNYFTSVPKNFMELLTNQEAQQWVSGWRLNADSVLWGGHKVFMVKPEEPFQPGKEATQL [V229G],0.0771,0.0715,0.0655,0.067,–,0.0056,0.0836,0.0723,0.0955,–,–,–,0.113,–,–,0.101,0.0738,–,0.171
MGESLFKGPRDYNPISSSICHLTNESDGHTTSLYGIGFGPFIITNKHLFRRNNGTLVVQSLHGVFKVKDTTTLQQHLVDGRDMIIIRMPKDFPPFPQKLKFREPQREERICLVTTNFQTKSMSSMVSDTSCTFPSGDGIFWKHWIQTKDGQCGSPLVSTRDGFIVGIHSASNFTNTNNYFTSVPKNFMELLTNQEAQQWVSGWRLNADSVLWGGHKVFMVKPMEPFQPVKEATQL [E223M],0.0687,0.0634,0.0616,0.0542,0.0631,0.0567,–,0.0682,0.0593,0.0573,0.0726,0.101,0.119,–,0.11,0.051,0.068,–,–
MGESLFKGPRDYNPISSSICHLTNESDGHTTSLYGIGFGPFIITNKHLFRRNNGTLVVQSLHGVFKVKDTTTLQQHLVDGRDMIIIRMPKDFPPFPQKLKFREPQREERICLVTTNFQTKSMSSMVSDTSCTFPSGDGIFWKHWIQTKDGQCGSPLVSTRDGFIVGIHSASNFTNTNNYFTSVPKNFMELLTNQEAQQWVSGWRLNADSVLWGGHKVFMVKPHEPFQPVKEATQL [E223H],0.0644,–,0.069,0.0635,–,0.0518,0.0824,0.0649,0.0708,0.0675,0.0626,–,–,–,0.0705,–,0.0648,0.0972,0.0778
MGESLFKGPRDYNPISSSICHLTNESDGHTTSLYGIGFGPFIITNKHLFRRNNGTLVVQSLHGVFKVKDTTTLQQHLVDGRDMIIIRMPKDFPPFPQKLKFREPQREERICLVTTNFQTKSMSSMVSDTSCTFPSGDGIFWKHWIQTKDGQCGSPLVSTRDGFIVGIHSASNFTNTNNYFTSVPKNFMELLTNQEAQQWVSGWRLNADSVLWGGHKVFYVKPEEPFQPVKEATQL [M219Y],0.0783,–,0.0639,–,0.0517,–,0.122,–,–,0.0634,0.0646,–,–,–,–,–,0.082,0.0756,–
MGESLFKGPRDYNPISSSICHLTNESDGHTTSLYGIGFGPFIITNKHLFRRNNGTLVVQSLHGVFKVKDTTTLQQHLVDGRDMIIIRMPKDFPPFPQKLKFREPQREERICLVTTNFQTKSMSSMVSDTSCTFPSGDGIFWKHWIQTKDGQCGSPLVSTRDGFIVGIHSASNFTNTNNYFTSVPKNFMELLTNQEAQQWVSGWRLNADSVLWGGHKVFIVKPEEPFQPVKEATQL [M219I],0.059,0.069,0.0661,0.0709,0.0644,0.0618,0.0732,0.0624,–,0.0598,0.0716,–,0.0904,–,–,–,0.0576,–,–
MGESLFKGPRDYNPISSSICHLTNESDGHTTSLYGIGFGPFIITNKHLFRRNNGTLVVQSLHGVFKVKDTTTLQQHLVDGRDMIIIRMPKDFPPFPQKLKFREPQREERICLVTTNFQTKSMSSMVSDTSCTFPSGDGIFWKHWIQTKDGQCGSPLVSTRDGFIVGIHSASNFTNTNNYFTSVPKNFMELLTNQEAQQWVSGWRLNADSVLWGGHKVFMVKPEEPFQPVKEANQL [T233N],0.0749,0.0529,0.0675,0.109,0.0775,0.0573,–,0.0558,0.0668,0.06,0.0671,0.123,0.155,–,–,–,–,0.0674,–
MGESLFKGPRDYNPISSSICHLTNESDGHTTSLYGIGFGPFIITNKHLFRRNNGTLVVQSLHGVFKVKDTTTLQQHLVDGRDMIIIRMPKDFPPFPQKLKFREPQREERICLVTTNFQTKSMSSMVSDTSCTFPSGDGIFWKHWIQTKDGQCGSPLVSTRDGFIVGIHSASNFTNTNNYFTSVPKNFMELLTNQEAQQWVSGWRLNADSVLWGGHKVFMVKPEEPFQPVKEATFL [Q234F],0.0522,0.0627,0.0697,–,0.0693,0.062,0.0762,0.0845,0.0562,0.0676,0.0704,0.0829,0.0932,–,–,0.0774,–,0.0655,–
MGESLFKGPRDYNPISSSICHLTNESDGHTTSLYGIGFGPFIITNKHLFRRNNGTLVVQSLHGVFKVKDTTTLQQHLVDGRDMIIIRMPKDFPPFPQKLKFREPQREERICLVTTNFQTKSMSSMVSDTSCTFPSGDGIFWKHWIQTKDGQCGSPLVSTRDGFIVGIHSASNFTNTNNYFTSVPKNFMELLTNQEAQQWVSGWRLNADSVLWGGHKVFMVKPEEPFQPVKEATLL [Q234L],0.0731,–,0.0742,0.0693,0.0693,–,0.0771,0.0733,0.0662,0.0638,–,0.123,–,–,–,–,–,0.0575,0.0725
